US4022891A (priority 1974, dated 1977)

Experiments:
bone absorption [1] = assay: Bone absorbing effect: serum 45Ca level in 45Ca-labelled rats (Example 32, Table 4); type: in vivo, Male wistar rats; details: for bone absorbing effect / bone resorption, comparative: in words; for Bone absorbing effect, activity of 1α-HCC set at 1: Table 7, Examples 29 to 33
Protocol: An increase in the serum radioactivity level was made an index of the effect of bone absorption. The control group was administered with corn oil alone. The number of rats tested was 4 in each group. In this figure, the symbol * indicates a significant difference in serum radioactivity level from the control.
Both the serum radioactivity level and the total calcium concentration in the serum were measured. For the measurement of the calcium concentration, a calcium measuring kit (made by Iatron Company) was used.

Serum Ca = assay: Total calcium concentration in the serum (Example 32, Table 5); type: in vivo, Male wistar rats
Source text: (§1) Male wistar rats (each with a body weight of about 150 g) were subcutaneously administered with an aqueous solution of ^45 CaCl2 in a dose of 50 μCi per rat, and kept for 6 weeks. ^45 Ca so administered was rapidly absorbed, and a greater portion of it gathered at the bones in several hours. Three weeks later, the ^45 Ca level in blood became constant, and only the bones were in the specifically labelled state. This was confirmed by a macroautoradiographic analysis of the whole body. […] Blood was taken out with the passage of time, and the serum radioactivity level was measured by the method described in Example 29 (a). An increase in the serum radioactivity level was made an index of the effect of bone absorption. The control group was administered with corn oil alone. The number of rats tested was 4 in each group. In this figure, the symbol * indicates a significant difference in serum radioactivity level from the control.
(§2) A similar test to Example 31 was performed on the above four compounds. Unlike Example 31, the experiment was begun three weeks after the administration of ^45 CaCl2. Both the serum radioactivity level and the total calcium concentration in the serum were measured. For the measurement of the calcium concentration, a calcium measuring kit (made by Iatron Company) was used.

[2] = system: intestinal calcium absorption; assay: Intestinal calcium absorption by the everted gut sac method (duodenum) after oral dosing (Examples 29 (b) and 30); details: for ^45 Ca (S/M): Table 2, 625 p moles oral, 8 hours, control 1.29 ± 0.16; for Effect of promoting intestinal calcium absorption (everted gut sac): Table 3, control 3.31 ± 0.12; for intestinal calcium absorption/transport promoting activity, comparative: in words; for Effect of promoting intestinal calcium absorption, activity of 1α-HCC set at 1: Table 7, Examples 29 to 33
[3] = Body weight change (Example 32, FIG. 7); type: in vivo, Male wistar rats; details: in words; for change in body weight: FIG. 7
Source text: as §1, §2

[4] = system: intestinal calcium transport; details: in words; found in vivo; cited from earlier work
[5] = system: intestinal calcium transport; assay: Effect of promoting intestinal calcium transport: serum radioactivity after oral 45CaCl2 (Example 29 (a)); type: in vivo, Male Wistar rats; details: for Radioactivity in serum: 625 p moles oral
Protocol: (a) Comparison with 1α-hydroxycholecalciferol (1α-HCC)
After a predetermined period of time, a solution of radioactive calcium chloride (^45 Ca Cl2, 30 μCi/ml) was administered orally. The radioactivity level in blood was measured over the course of 10 to 60 minutes. The maximum value was made an index of intestinal calcium absorption.
A control group of rats was administered with corn oil alone in the same amount.
The radioactivity level was measured by placing 0.2 ml. of serum in a Vial bottle, adding 12 ml. of a cocktail containing a scintillator (containing 1200 ml of toluene, 800 ml of ethyl cellosolve, 8 g of 2,5-diphenyloxazole, and 300 mg of 2,2'-p-phenylenebis(5-phenyloxazole)), and determining the radioactivity by means of a liquid scintillation counter.

bone absorption [6] = assay: Bone absorption effect: increase in serum 45Ca radioactivity in 45Ca-labelled rats, continuous oral dosing (Example 31, FIG. 6); type: in vivo, Male wistar rats
Source text: as §1

[7] = in words; prior knowledge; cited from earlier work
in vivo = details: mouse, in vivo, ID50, mouse
Protocol: (§3) The toxicity of each of the above two compounds was tested by a well known method.

Mouse = assay: in vivo; details: Table 7; Examples 29 to 33
Protocol: as §3

| Structure (SMILES) | Serum ^45 Ca level, serum radioactivity (bone absorption [1]; 0 days, control 699 ± 53.7) | Serum ^45 Ca level, serum radioactivity (bone absorption [1]; 5 days, control 621 ± 48.6) | Serum ^45 Ca level, serum radioactivity (bone absorption [1]; 7 days, control 597 ± 33.9) | Serum ^45 Ca level, serum radioactivity (bone absorption [1]; 9 days, control 600 ± 49.3) | bone absorbing effect / bone resorption, comparative (bone absorption [1]) | Serum Ca (Serum Ca; 0 days, control 11.4 ± 0.32) | Serum Ca (Serum Ca; 5 days, control 10.0 ± 0.29) | Serum Ca (Serum Ca; 7 days, control 11.1 ± 0.22) | Serum Ca (Serum Ca; 9 days, control 10.6 ± 0.15) | ^45 Ca (S/M) [2] | Effect of promoting intestinal calcium absorption (everted gut sac) ([2]; dose 125 p mole) | Effect of promoting intestinal calcium absorption (everted gut sac) ([2]; dose 625 p mole) | Effect of promoting intestinal calcium absorption (everted gut sac) ([2]; dose 3,125 p mole) | intestinal calcium absorption/transport promoting activity, comparative [2] | change in body weight [3] | Radioactivity in serum ([5]; 4 hours after administration) | Radioactivity in serum ([5]; 8 hours after administration) | Radioactivity in serum ([5]; 12 hours after administration) | Radioactivity in serum ([5]; 24 hours after administration) | Bone absorbing effect, activity of 1α-HCC set at 1 (bone absorption [1]) | further results |
| --- | --- | --- | --- | --- | --- | --- | --- | --- | --- | --- | --- | --- | --- | --- | --- | --- | --- | --- | --- | --- | --- |
| C=C1/C(=C\C=C2/CCC[C@]3(C)[C@@H]([C@H](C)CC[C@@H](O)C(C)C)CC[C@@H]23)C[C@@H](O)C[C@@H]1O [1α,24(R)-DHCC, 1α,24(R)-dihydroxycholecalciferol] | 648 ± 44.3 cpm | 874 ± 30.4 cpm | 778 ± 26.9 cpm | 681 ± 63.7 cpm | 1α,24(R)-DHCC > 1α,24-DHCC > 1α,24(S)-DHCC | 11.3 ± 0.35 mg/dL | 12.6 ± 0.23 mg/dL | 13.3 ± 0.25 mg/dL | 12.8 ± 0.35 mg/dL | 5.86 ± 1.98 | 4.42 ± 0.41 | 5.93 ± 0.33 | 5.84 ± 0.39 | greater effect of promoting intestinal calcium absorption than 1α,24(S)-DHCC and 1α,24(R)-DHCC > 1α,24-DHCC > 1α,24(S)-DHCC |  |  |  |  |  |  |  |
| C=C1/C(=C\C=C2/CCC[C@]3(C)[C@@H]([C@H](C)CC[C@H](O)C(C)C)CC[C@@H]23)C[C@@H](O)C[C@@H]1O [1α,24(S)-DHCC, 1α,24(S)-dihydroxycholecalciferol] | 780 ± 43.5 cpm | 539 ± 45.2 cpm | 520 ± 53.8 cpm | 609 ± 91.5 cpm |  | 11.2 ± 0.16 mg/dL | 11.5 ± 0.33 mg/dL | 11.2 ± 0.29 mg/dL | 11.5 ± 0.24 mg/dL | 2.68 ± 0.80 | 3.97 ± 0.28 | 4.17 ± 0.31 | 5.18 ± 0.20 |  | little difference from the control group |  |  |  |  |  |  |
| C=C1/C(=C\C=C2/CCC[C@]3(C)[C@@H]([C@H](C)CCC(O)C(C)(C)O)CC[C@@H]23)C[C@@H](O)C[C@@H]1O (stereo partly drawn) [1α,24,25-THCC, 1α,24,25-trihydroxycholecalciferol] |  |  |  |  |  |  |  |  |  |  |  |  |  |  |  |  |  |  |  |  | promoting effect on intestinal calcium transport [4]: fairly selective, although not so strong, promoting efffect on intestinal calcium transport |
| C=C1/C(=C\C=C2/CCC[C@]3(C)[C@@H]([C@H](C)CCC(O)C(C)C)CC[C@@H]23)C[C@@H](O)C[C@@H]1O (stereo partly drawn) [1α,24-DHCC, 1α,24-dihydroxycholecalciferol] | 675 ± 54.9 cpm | 948 ± 64.6 cpm | 700 ± 32.8 cpm | 661 ± 78.8 cpm | far weaker in bone absorbing effect than 1α-HCC and 1α,24(R)-DHCC > 1α,24-DHCC > 1α,24(S)-DHCC | 11.7 ± 0.26 mg/dL | 12.9 ± 0.18 mg/dL | 11.5 ± 0.23 mg/dL | 12.1 ± 0.19 mg/dL |  | 4.12 ± 0.25 | 4.84 ± 0.32 | 5.47 ± 0.33 | at least an equivalent activity to 1α-HCC and 1α,24(R)-DHCC > 1α,24-DHCC > 1α,24(S)-DHCC | lesser degree of change in body weight than 1α,-HCC | 360 ± 150 cpm | 996 ± 80 cpm | 924 ± 130 cpm | 426 ± 61 cpm | 1/3 | promotion of intestinal calcium absorption compared with 1α-HCC ([5]; in words): nearly an equivalent effect to 1α-HCC; time after start of administration at which bone absorption increased significantly (bone absorption [6]; 2,125 P moles once a day oral, FIG. 6): 4 days; toxicity suggested by bone absorption (bone absorption [6]; in words): lower in toxicity; bone absorbing effect compared with 1α-HCC (bone absorption [6]; in words, FIG. 6): weaker bone absorbing effect than 1α-HCC; bone absorbing effect / bone resorption, comparative (bone absorption [1]; listed as 1α-24-DHCC): weak bone absorbing effect as compared with the known analogs of active form of vitamin D3; toxicity suggested by body weight change [3]: lower than that of 1α-HCC; Effect of promoting intestinal calcium absorption, activity of 1α-HCC set at 1 [2]: 1 |
| C=C1/C(=C\C=C2/CCC[C@]3(C)[C@@H]([C@H](C)CCCC(C)(C)O)CC[C@@H]23)C[C@@H](O)C[C@@H]1O [1α,25-DHCC, 1α,25-dihydroxycholecalciferol] |  |  |  |  |  |  |  |  |  |  |  |  |  |  |  |  |  |  |  |  | activity as analogs of active forms of vitamin D3 [7]: superior activites as analogs of active forms of vitamin D3; toxicity [7]: at least as toxic as 1α-HCC |
| C=C1/C(=C\C=C2/CCC[C@]3(C)[C@@H]([C@H](C)CCCC(C)C)CC[C@@H]23)C[C@@H](O)C[C@@H]1O [1α-HCC, 1α-hydroxycholecalciferol, reference compound] | 690 ± 39.4 cpm | 1056 ± 66.8 cpm | 1184 ± 51.1 cpm | 904 ± 57.1 cpm |  | 10.4 ± 0.21 mg/dL | 14.1 ± 0.29 mg/dL | 14.7 ± 0.33 mg/dL | 13.8 ± 0.41 mg/dL |  | 3.59 ± 0.23 | 4.10 ± 0.27 | 5.10 ± 0.27 |  |  | 697 ± 221 cpm | 1035 ± 150 cpm | 643 ± 210 cpm | 332 ± 28 cpm | 1 | LD50 (in vivo; iv, o + (female), intravenous): 0.1 mg/kg; LD50 (in vivo; iv, o^+ (male), intravenous): 0.167 mg/kg; LD50 (in vivo; po, o + (female), peros): 0.508 mg/kg; LD50 (in vivo; po, o^+ (male), peros): 0.474 mg/kg; Acute toxicity, 1α-HCC set at 1 (Mouse): 1; activity as analogs of active forms of vitamin D3 [7]: superior activites as analogs of active forms of vitamin D3; toxicity [7]: very high toxicity; Effect of promoting intestinal calcium absorption, activity of 1α-HCC set at 1 [2]: 1 |

Where “and” joins values, the source holds several entries; their conditions need not be identical. Equal entries are not always repeated.
